Source: PubChem BioAssay AID588591 (National Center for Advancing Translational Sciences (NCATS), 2011)
The campaign covered roughly 390,000 compounds. About 4,700 (1.2%) were called active. The shares of active, inactive and inconclusive entries below differ from those in the screen. Calls come from the whole dose curve; as a rule, active = well fitted inhibition curve with a large enough effect; inconclusive = small, poorly fitted or top-dose-only effect, or another doubt; inactive = no such curve, though single readings can be large or run the other way. Potencies beside an inconclusive call are fits to weak or partial responses and may not hold up.
Potency is the fitted concentration of half-maximal effect; tags give direction and shape of the fitted curve.

What follows are molecules tested against DNA polymerase eta (Homo sapiens) (UniProt Q9Y253) (assay: qHTS for Inhibitors of Polymerase Eta). Conditions: recombinant Pol eta, fluorescent DNA replication assay; series mostly up to 114 µM.
Sequence of UniProt Q9Y253 (Q9Y253 whole entry, looked up): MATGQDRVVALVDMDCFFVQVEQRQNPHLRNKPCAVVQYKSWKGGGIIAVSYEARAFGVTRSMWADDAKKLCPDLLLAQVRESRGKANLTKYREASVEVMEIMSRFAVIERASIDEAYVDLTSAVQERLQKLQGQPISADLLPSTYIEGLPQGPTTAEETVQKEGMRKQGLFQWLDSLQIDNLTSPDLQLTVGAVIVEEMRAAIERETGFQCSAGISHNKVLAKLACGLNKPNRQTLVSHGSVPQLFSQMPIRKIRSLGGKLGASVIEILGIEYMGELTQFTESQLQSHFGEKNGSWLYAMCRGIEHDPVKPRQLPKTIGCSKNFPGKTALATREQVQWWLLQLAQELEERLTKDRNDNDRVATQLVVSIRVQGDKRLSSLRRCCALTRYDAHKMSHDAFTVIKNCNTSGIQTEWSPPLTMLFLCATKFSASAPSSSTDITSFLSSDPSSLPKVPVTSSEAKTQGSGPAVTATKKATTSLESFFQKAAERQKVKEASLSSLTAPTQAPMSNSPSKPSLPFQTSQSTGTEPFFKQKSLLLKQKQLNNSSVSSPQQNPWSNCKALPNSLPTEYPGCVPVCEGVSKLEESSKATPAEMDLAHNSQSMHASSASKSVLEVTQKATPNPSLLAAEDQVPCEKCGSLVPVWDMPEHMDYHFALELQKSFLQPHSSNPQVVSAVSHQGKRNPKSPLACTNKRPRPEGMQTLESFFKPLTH
Procedure, shortened: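 Pol eta at 10 nM preincubated with compounds 15 min at room temperature; reaction started with fluorescent substrate (50 nM final) and read kinetically at 0 and 10 min.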
For `Cc1cc(C)cc(NC(=O)C(NCC2CCCO2)c2ccccc2)c1` (stereo not given), the Potency was inconclusive: 79.4 µM [inhibitor, partial curve, poor fit].
In the case of `O=C(Nc1sc2c(c1C(=O)O)CCCC2)c1cccs1`, the Potency is reported as inconclusive: 31.6 µM [inhibitor, single point].
`Cc1ccc(NC(=O)Cn2cc(C(=O)c3ccco3)c3ccccc32)cc1C` was tested, and the Potency was inconclusive: 56.2 µM [inhibitor, partial curve, poor fit].
In the case of `CC(/C=N/n1c(-c2ccco2)n[nH]c1=S)=C\c1ccco1`, the Potency is reported as inconclusive: 28.2 µM [inhibitor, partial curve, poor fit].
With `C=CCc1cccc2cc(C(=O)Nc3ccccc3C(=O)O)c(=O)oc12` the Potency was active: 44.7 µM.
For `COc1ccc(OCC(=O)Nc2cccc(C(=O)OCc3cc(=O)n4nc(C)sc4n3)c2)cc1`, the Potency was “inactive”.
For `COc1ccc(C(=O)Nn2c(CC(C)C)nc3cc(OC)c(OC)cc3c2=O)c(OC)c1`, the Potency was inconclusive: 89.1 µM [inhibitor, partial curve, poor fit].
In the case of `O=C(NNC(=O)c1ccccc1C(F)(F)F)c1csc(N2CCOCC2)n1`, the Potency is reported as “inactive”.
In the case of `CCCCn1c(N)c(-c2nc3ccccc3o2)c2c([N+](=O)[O-])nn(CC)c(=O)c21`, the Potency is reported as active: 3.55 µM.
With `Cc1ccc(C2C=C(c3ccccc3)Nc3nc(NS(=O)(=O)c4ccc(C)cc4)nn32)cc1` (stereo not given) the Potency was inconclusive: 100 µM [inhibitor, partial curve, poor fit].
In the case of `O=C(O)/C(=C\c1ccc(Br)cc1)c1ccc(S(=O)(=O)N2CCCCC2)s1`, the Potency is reported as inconclusive: 79.4 µM [inhibitor, partial curve].
In the case of `COc1ccc(CNC(=O)C(Cc2ccccc2)NS(=O)(=O)c2ccc3c(c2)CCN3C(C)=O)cc1` (stereo not given), the Potency is reported as “inactive”.
With `CC(Oc1ccc(C#N)cc1)C(=O)Nc1ccc(-n2cnnn2)cc1` (stereo not given) the Potency was “inactive”.
In the case of `COc1ccc(CN(C)C(=O)c2ccc(NC(=O)CC3SC(N4CCCCC4)=NC3=O)cc2)c(OC)c1` (stereo not given), the Potency is reported as “inactive”.
In the case of `O=C(NCc1ccncc1)C(=O)NCC(c1ccco1)N1CCN(c2ccccc2)CC1` (stereo not given), the Potency is reported as inconclusive: 79.4 µM [inhibitor, partial curve, poor fit].
With `Cc1ccc(C)c(N2CCN(C(=O)CCS(=O)(=O)c3cc(Br)cc4c3N(C(=O)C3CC3)CC4)CC2)c1` the Potency was “inactive”.
For `c1ccc2oc(-c3ccc4nc[nH]c4c3)nc2c1`, the Potency was inconclusive: 28.2 µM [inhibitor, partial curve, poor fit].
With `Cn1c(=O)n(CC(=O)O)c(=O)c2c1nc1n2CCCN1Cc1ccccc1` the Potency was “inactive”.
For `CCOc1ccc2nc3cc(NCc4ccc(OC)cc4)ccc3c(N)c2c1`, the Potency was active: 79.4 µM.
`CCOc1cc(/C=C2\C(=N)N3N=C(S(C)(=O)=O)SC3=NC2=O)ccc1OCCOc1cccc(OC)c1` was tested, and the Potency was active: 28.2 µM.
With `C=CCN(c1ccccc1)S(=O)(=O)c1cccc(C(=O)Nc2cc(C)ccn2)c1` the Potency was inconclusive: 79.4 µM [inhibitor, partial curve, poor fit].
In the case of `O=C1CSC(=S)N1/N=C/c1cccnc1`, the Potency is reported as inconclusive: 25.1 µM [inhibitor, full curve, poor fit].
For `O=[N+]([O-])c1ccccc1N/N=C1\CC2CC=CC12` (stereo not given), the Potency was inconclusive: 100 µM [inhibitor, partial curve, poor fit].
`CC(=O)c1ccccc1NS(=O)(=O)c1cccc2nsnc12` was tested, and the Potency was active: 50.1 µM.
In the case of `CN(C)c1ccc(/C=C/C(=O)c2ccccc2)cc1[N+](=O)[O-]`, the Potency is reported as “inactive”.
In the case of `O=C(COc1cccc(F)c1)NNC(=O)c1cccc(-n2cccc2)c1`, the Potency is reported as inconclusive: 56.2 µM [inhibitor, partial curve].
For `COc1ccc(C2CC(=O)c3cnc4c(-c5ccc(F)cc5)c(C)nn4c3C2)cc1OC` (stereo not given), the Potency was “inactive”.
For `COC(=O)c1c(C)oc2c1cc(NS(=O)(=O)c1ccc(C(=O)O)cc1)c1ccccc12`, the Potency was inconclusive: 56.2 µM [inhibitor, partial curve, poor fit].
For `CCCC1Cc2nc(Cl)c(C#N)cc2CO1` (stereo not given), the Potency was inconclusive: 25.1 µM [inhibitor, partial curve, poor fit].
For `CC(C)CNC(=O)C1Nc2ccccc2C2C=CCC12` (stereo not given), the Potency was “inactive”.
In the case of `CC(=O)c1ccc(NC(=O)CSc2nnc(-c3ccco3)c(-c3ccco3)n2)cc1`, the Potency is reported as active: 22.4 µM.
With `CC(NC(=O)/C(=C\c1ccco1)NC(=O)c1ccccc1Br)C(=O)O` (stereo not given) the Potency was inconclusive: 56.2 µM [inhibitor, partial curve].
With `CC[C@@H](C)[C@H](NC(=O)CCc1c(C)c2cc3c4c(oc3c(C)c2oc1=O)CCCC4)C(=O)O` the Potency was inconclusive: 39.8 µM [inhibitor, single point].
`COc1ccc(-n2ncc(C(=O)N3CCN(C4CCCCC4)CC3)c2C2CCN(C(=O)OC(C)(C)C)CC2)cc1` was tested, and the Potency was “inactive”.
For `O=S(=O)(NCc1ccco1)c1cccc2cccnc12`, the Potency was inconclusive: 22.4 µM [inhibitor, single point].
For `CCc1ccc(NC(=O)C2CCCN2S(=O)(=O)c2ccc3nc(-c4ccccc4)[nH]c3c2)cc1` (stereo not given), the Potency was inconclusive: 50.1 µM [inhibitor, partial curve].
For `O=S1(=O)CCS(=O)(=O)C1c1ccccc1`, the Potency was “inactive”.
For `O=[n+]1c2c(n([O-])c3cc(F)c(N4CCCC4)cc31)CCCC2`, the Potency was inconclusive: 25.1 µM [inhibitor, single point].
For `S=c1[nH]nc(-c2cc(-c3ccccc3)n[nH]2)n1/N=C/c1ccc(Br)s1`, the Potency was inconclusive: 79.4 µM [inhibitor, partial curve].
`Cc1cc(C)nc(NS(=O)(=O)c2ccc(N/C=C3\CCCC3=O)cc2)n1` was tested, and the Potency was inconclusive: 15.8 µM [inhibitor, partial curve, poor fit].
For `O=S(=O)(Cc1ccco1)Cc1nc(-c2ccc(Cl)cc2)cs1`, the Potency was “inactive”.
In the case of `Cc1c(C(=O)NC(=S)Nc2ccccc2N2CCCC2)cccc1[N+](=O)[O-]`, the Potency is reported as inconclusive: 31.6 µM [inhibitor, partial curve, poor fit].
`Cc1sc2nc(SCC(=O)Nc3c(C)n(C)n(-c4ccccc4)c3=O)n(C)c(=O)c2c1C` was tested, and the Potency was inconclusive: 89.1 µM [inhibitor, single point].
In the case of `Clc1ccccc1COc1ccc(/C=N/n2cnnc2)cc1`, the Potency is reported as “inactive”.
For `Cc1[nH]c2c(C)cccc2c1CN1CCC(CO)(Cc2ccccc2)CC1`, the Potency was inconclusive: 89.1 µM [inhibitor, partial curve, poor fit].
With `CCOC(=O)c1ccc(NC(=O)C2CCCO2)cc1` (stereo not given) the Potency was “inactive”.
In the case of `Cc1ccc(C(=O)O)cc1S(=O)(=O)Nc1ccccc1C(=O)NC1CC1`, the Potency is reported as inconclusive: 25.1 µM [inhibitor, partial curve, poor fit].
In the case of `NC(CSC(c1ccccc1)(c1ccccc1)c1ccc2c(c1)OCO2)C(=O)O` (stereo not given), the Potency is reported as active: 35.5 µM.
In the case of `CCN(CCN(C)C)C(=O)c1ccc2c(c1NCCO)C(=O)c1ccccc1C2=O`, the Potency is reported as inconclusive: 89.1 µM [inhibitor, partial curve].
`CCOc1ccccc1NC(=O)CSc1ccc(-c2ccco2)nn1` was tested, and the Potency was inconclusive: 35.5 µM [inhibitor, partial curve, poor fit].
For `Cc1ccccc1N1C(S)=C(C#N)C(=O)NC1c1ccco1` (stereo not given), the Potency was active: 28.2 µM.
`COc1ccc2[nH]c3c4c(ccc3c2c1)C(=O)C=CC4=O` was tested, and the Potency was inconclusive: 8.91 µM [inhibitor, partial curve, poor fit].
`CC(NS(=O)(=O)c1ccc(Br)cc1)C(=O)NCc1ccco1` (stereo not given) was tested, and the Potency was “inactive”.
For `Nc1nc(Nc2cccc(Cl)c2)sc1C(=O)c1ccc(F)cc1`, the Potency was inconclusive: 89.1 µM [inhibitor, single point].
For `Cc1c(C(=O)O)cccc1-c1ccc(C=O)o1`, the Potency was active: 5.01 µM.
With `O=c1[nH]c2sc3c(c2c(=O)n1Cc1ccccc1)CCC3` the Potency was inconclusive: 35.5 µM [inhibitor, partial curve, poor fit].
With `COc1ccc(S(=O)(=O)NCCc2csc(-c3cccc(F)c3)n2)cc1OC` the Potency was “inactive”.
In the case of `CCCNC(=S)Nc1ccc(Br)cc1`, the Potency is reported as “inactive”.
`COc1cc(OC)c(NC(=O)CC(C)S(=O)(=O)c2ccc3c(c2)NC(=O)CO3)cc1Cl` (stereo not given) was tested, and the Potency was “inactive”.
In the case of `CC(OC(=O)/C(C#N)=C/c1ccc(N(C)C)cc1)C(=O)N(C)Cc1ccccc1` (stereo not given), the Potency is reported as active: 50.1 µM.
With `CCCCOc1ccc(CNC(=O)CN2C(=O)CCn3nc(-c4cn(C)c5ccccc45)cc32)cc1` the Potency was “inactive”.
In the case of `CCC1CN(C(=O)NCc2ccc(F)cc2)c2cc(Cl)ccc2O1` (stereo not given), the Potency is reported as inconclusive: 56.2 µM [inhibitor, partial curve, poor fit].
For `CCOc1cccc(CNC(=O)c2ccc(N3CCCC3)c(NC(=O)Nc3ccccc3CC)c2)c1`, the Potency was “inactive”.
`CC(=O)N1CCc2cc(Br)cc(S(=O)(=O)NCCc3cccc(C)c3)c21` was tested, and the Potency was “inactive”.
For `c1ccc(-c2cnc(CN3CCN(c4ccccc4)CC3)o2)cc1`, the Potency was inconclusive: 79.4 µM [inhibitor, partial curve, poor fit].
With `CC(OC(=O)c1ccc(S(=O)(=O)NCc2ccco2)cc1)C(=O)Nc1ccc(Cl)cn1` (stereo not given) the Potency was inconclusive: 15.8 µM [inhibitor, full curve, poor fit].
In the case of `O=C1c2ccccc2C(=O)N1Cc1ccco1`, the Potency is reported as “inactive”.
With `O=Nc1c2cc3ccccc3[nH]c-2c2ccccc12` the Potency was inconclusive: 39.8 µM [inhibitor, partial curve, poor fit].
For `COc1cccc(NC(=O)/C(C#N)=C/c2c(C)n(Cc3ccccc3)c3ccccc23)c1`, the Potency was “inactive”.
`COc1ccccc1CNS(=O)(=O)c1c(C)[nH]c(C)c1C(=O)N1CCCC1` was tested, and the Potency was “inactive”.
